Where two headings read alike, the source gives them in different places.
Assays:
[1] = target: T1, human PDL1 expressed on CHO cells (human, UniProt Q9NZQ7); test: cell-based or functional assay
[2] = target: T2, Human PDL1-His (recombinant human PDL1 ECD with C-terminal poly histidine tag, expressed in-house) (human, UniProt Q9NZQ7 part only); test: BLI (Octet), recombinant h-PDL1
T2 construct: also called h-PDL1-His; h-PDL1-his; not shown: poly histidine tag at the C-terminus
Excerpt: (§1) A kinetic buffer only well was set as a reference well for subtraction during data processing. Data were fitted with a 1:1 Langmuir model for association and dissociation using Rmax linked global fitting for each antibody-antigen binding.

[3] = target: T2, Human PDL1-His (recombinant human PDL1 …); test: BLI (Octet Red 96), antibody on AHC sensor, 1:1 fit
Excerpt: as §1

[4] = target: T3, Cyno PDL1-His (recombinant cynomolgus PDL1 with C-terminal poly histidine tag, Acro Biosystems) (cynomolgus monkey, UniProt G7PSE7 19-238); test: as above
T3 construct: also called cynomolgus monkey PDL1
Excerpt: as §1

[5] = target: T1, human PDL1 expressed on CHO cells; test: cell-based or functional assay; remark: listed apart in the source
[6] = target: T2, Human PDL1-His (recombinant human PDL1 …); test: BLI (Octet), hPDL1 ECD, bivalent VHH-Fc
Excerpt: as §1

[7] = target: T1, human PDL1 expressed on CHO cells; test: cell-based or functional assay; remark: listed apart in the source

T1 sequence (Q9NZQ7 19-290 limits assumed): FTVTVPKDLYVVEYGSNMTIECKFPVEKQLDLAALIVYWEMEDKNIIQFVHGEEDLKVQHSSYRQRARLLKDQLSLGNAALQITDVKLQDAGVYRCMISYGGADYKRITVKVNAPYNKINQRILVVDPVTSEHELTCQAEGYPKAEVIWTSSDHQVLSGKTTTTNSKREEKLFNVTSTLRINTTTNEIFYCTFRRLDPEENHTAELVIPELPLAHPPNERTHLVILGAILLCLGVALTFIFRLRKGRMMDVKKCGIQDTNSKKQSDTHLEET
T3 sequence (G7PSE7 entry or part of it limits assumed): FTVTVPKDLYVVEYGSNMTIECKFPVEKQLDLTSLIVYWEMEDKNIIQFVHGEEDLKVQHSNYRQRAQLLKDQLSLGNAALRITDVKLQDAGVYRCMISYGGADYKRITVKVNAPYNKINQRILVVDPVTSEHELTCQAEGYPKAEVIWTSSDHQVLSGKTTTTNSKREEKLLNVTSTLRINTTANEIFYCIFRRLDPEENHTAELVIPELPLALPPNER

B1: 10A4 VHH-Fc (bivalent chimeric anti-PDL1 antibody) (Fc fusion)
heavy: QVKLEESGGGLVMAGGSLRLSCAASGGPFMSYAMGWFRQAPGKEREFVAAIRWNGISTFYADSVKGRFTVSRDNGKNMAFLQMNSLKPEDTAVYYCAAAQTIVTVPENYEYHYWGQGTQVTVSS[letters of human IgG1 Fc not shown]
notes: expressed in ExpiCHO, Protein A purified; also called 10A4-chimera; chimeric 10A4
EC50; whole cell PDL1/PD1 blocking assay, NFAT luciferase reporter (RLU) [1]: 0.242 nM
Kd [2]: 1.49 nM
koff [2]: 0.000333 s⁻¹
kon [2]: 224000 M⁻¹ s⁻¹
Kd [3]: 0.934 nM
koff [3]: 0.000323 s⁻¹
kon [3]: 346000 M⁻¹ s⁻¹
Kd [4]: 0.942 nM
koff [4]: 0.000327 s⁻¹
kon [4]: 347000 M⁻¹ s⁻¹
EC50; whole cell PDL1/PD1 blocking assay, NFAT luciferase reporter (RLU) [5]: 3.79 nM
koff [6]: 7.83e-05 s⁻¹
kon [6]: 458000 M⁻¹ s⁻¹

B2: 2F9 VHH-Fc (Fc fusion)
heavy: QVQLVESGGGVVQPGRSLRLSCAASGGPFMSYAMGWFRQAPGKEREFVAAIRWSGISTFYADSVKGRFTISRDNSKNTLYLQMNSLRAEDTAVYYCAAAQTIVTVPENYEFDYWGQGTQVTVSS[letters of human IgG1 Fc not shown]
Kd [6]: 1.44 nM
koff [6]: 0.000556 s⁻¹
kon [6]: 386000 M⁻¹ s⁻¹

B3: 1B2 VHH-Fc (Fc fusion)
heavy: QVQLVESGGGVVQPGRSLRLSCAASGGPFMSYAMGWFRQAPGKEREFVAAIRWSGESTFYADSVKGRFTISRDNSKNTLYLQMNSLRAEDTAVYYCAAAQTIVTVPENKEFDYWGQGTQVTVSS[letters of human IgG1 Fc not shown]
Kd [6]: 1.59 nM
koff [6]: 0.000883 s⁻¹
kon [6]: 555000 M⁻¹ s⁻¹

B4: 1E4 VHH-Fc (Fc fusion)
heavy: QVQLVESGGGVVQPGRSLRLSCAASGGPFMSYAMGWFRQAPGKEREFVAAIRWNGISTFYADSVKGRFTISRDNSKNTLYLQMNSLRAEDTAVYYCAAAQTIVTVPENYEFDYWGQGTQVTVSS[letters of human IgG1 Fc not shown]
Kd [6]: 0.856 nM
koff [6]: 0.000397 s⁻¹
kon [6]: 463000 M⁻¹ s⁻¹

B5: 1F6 VHH-Fc (Fc fusion)
heavy: QVQLVESGGGVVQPGRSLRLSCAASGGPFMSYAMGWFRQAPGKEREFVAAIRWSGKSTFYADSVKGRFTISRDNSKNTLYLQMNSLRAEDTAVYYCAAAQTIVTVPESYEFDYWGQGTQVTVSS[letters of human IgG1 Fc not shown]
Kd [6]: 1.68 nM
koff [6]: 0.000801 s⁻¹
kon [6]: 476000 M⁻¹ s⁻¹

B6: 1G12 VHH-Fc (Fc fusion)
heavy: QVQLVESGGGVVQPGRSLRLSCAASGGPFMSYAMGWFRQAPGKEREFVAAIRWSGLSTFYADSVKGRFTISRDNSKNTLYLQMNSLRAEDTAVYYCAAAQTIVTVPENYNFDYWGQGTQVTVSS[letters of human IgG1 Fc not shown]
Kd [6]: 6.91 nM
koff [6]: 0.0014 s⁻¹
kon [6]: 203000 M⁻¹ s⁻¹

B7: 1H2 VHH-Fc (Fc fusion)
heavy: QVQLVESGGGVVQPGRSLRLSCAASGGPFMSYAMGWFRQAPGKEREFVAAIRWSGLSTFYADSVKGRFTISRDNSKNTLYLQMNSLRAEDTAVYYCAAAPTIVTVPENYEFDYWGQGTQVTVSS[letters of human IgG1 Fc not shown]
Kd [6]: 3.16 nM
koff [6]: 0.0012 s⁻¹
kon [6]: 381000 M⁻¹ s⁻¹

B8: 2H4 VHH-Fc (Fc fusion)
heavy: QVQLVESGGGVVQPGRSLRLSCAASGGPFMSYAMGWFRQAPGKEREFVAAIRWNGISTFYADSVKGRFTISRDNSKNTLYLQMNSLRAEDTAVYYCAAAQTIVTVPENYHFDYWGQGTQVTVSS[letters of human IgG1 Fc not shown]
notes: also called 2H4-Fc
Kd [6]: 0.869 nM
koff [6]: 0.00041 s⁻¹
kon [6]: 472000 M⁻¹ s⁻¹

B9: 3D5 VHH-Fc (Fc fusion)
heavy: QVQLVESGGGVVQPGRSLRLSCAASGGPFMSYAMGWFRQAPGKEREFVAAIRWSGHSTFYADSVKGRFTISRDNSKNTLYLQMNSLRAEDTAVYYCAAAQTISTVPENYEFDYWGQGTQVTVSS[letters of human IgG1 Fc not shown]
notes: also called 3D5-Fc
Kd [6]: 1.27 nM
koff [6]: 0.000639 s⁻¹
kon [6]: 502000 M⁻¹ s⁻¹

B10: 5D8 VHH-Fc (Fc fusion)
heavy: QVQLVESGGGVVQPGRSLRLSCAASGGPFMSYAMGWFRQAPGKEREFVAAIRWSGQSTFYADSVKGRFTISRDNSKNTLYLQMNSLRAEDTAVYYCAAAQTIVTVPSNYEFDYWGQGTQVTVSS[letters of human IgG1 Fc not shown]
Kd [6]: 7.42 nM
koff [6]: 0.0019 s⁻¹
kon [6]: 257000 M⁻¹ s⁻¹

B11: 5G10 VHH-Fc (Fc fusion)
heavy: QVQLVESGGGVVQPGRSLRLSCAASGGPFMSYAMGWFRQAPGKEREFVAAIRWSGASTFYADSVKGRFTISRDNSKNTLYLQMNSLRAEDTAVYYCAAAQTIVTVPENYEFDYWGQGTQVTVSS[letters of human IgG1 Fc not shown]
Kd [6]: 9.26 nM
koff [6]: 0.00195 s⁻¹
kon [6]: 211000 M⁻¹ s⁻¹

B12: Humanized 10A4 GLEF VHH-Fc (Fc fusion)
heavy: EVQLVESGGGLVQPGGSLRLSCAASGGPFMSYAMGWVRQAPGKGLEFVAAIRWNGISTFYADSVKGRFTISRDNSKNTLYLQMNSLRAEDTAVYYCAAAQTIVTVPENYEYHYWGQGTQVTVSS[letters of human IgG1 Fc not shown]
notes: Humanized on IGHV3-23*04, keeps llama Phe47 (Kabat); bivalent VHH-Fc
Kd [2]: 1.54 nM
koff [2]: 0.00035 s⁻¹
kon [2]: 228000 M⁻¹ s⁻¹
EC50; whole cell PDL1/PD1 blocking assay, NFAT luciferase reporter (RLU) [5]: 8.3 nM

B13: Humanized 10A4 GLEF-N2S VHH-Fc (Fc fusion)
heavy: EVQLVESGGGLVQPGGSLRLSCAASGGPFMSYAMGWVRQAPGKGLEFVAAIRWSGISTFYADSVKGRFTISRDNSKNTLYLQMNSLRAEDTAVYYCAAAQTIVTVPENYEYHYWGQGTQVTVSS[letters of human IgG1 Fc not shown]
notes: CDR2 asparagine changed to serine; bivalent VHH-Fc
EC50; whole cell PDL1/PD1 blocking assay, NFAT luciferase reporter (RLU) [7]: 0.824 nM
Kd [2]: 1.42 nM
koff [2]: 0.000322 s⁻¹
kon [2]: 226000 M⁻¹ s⁻¹
EC50; whole cell PDL1/PD1 blocking assay, NFAT luciferase reporter (RLU) [5]: 7.37 nM

B14: Humanized 10A4 GLEF-N2S-FDY VHH-Fc (Fc fusion)
heavy: EVQLVESGGGLVQPGGSLRLSCAASGGPFMSYAMGWVRQAPGKGLEFVAAIRWSGISTFYADSVKGRFTISRDNSKNTLYLQMNSLRAEDTAVYYCAAAQTIVTVPENYEFDYWGQGTQVTVSS[letters of human IgG1 Fc not shown]
notes: 10A4-GLEF-N2S with Tyr100Phe and His101Asp (Kabat numbering); bivalent VHH-Fc
Kd [2]: 2.81 nM
koff [2]: 0.00093 s⁻¹
kon [2]: 331000 M⁻¹ s⁻¹

B15: Humanized 10A4 GLEF-N2T (VHH-Fc) (Fc fusion)
heavy: EVQLVESGGGLVQPGGSLRLSCAASGGPFMSYAMGWVRQAPGKGLEFVAAIRWTGISTFYADSVKGRFTISRDNSKNTLYLQMNSLRAEDTAVYYCAAAQTIVTVPENYEYHYWGQGTQVTVSS[letters of human IgG1 Fc not shown]
Kd [2]: 6.83 nM
koff [2]: 0.0019 s⁻¹
kon [2]: 278000 M⁻¹ s⁻¹
EC50; whole cell PDL1/PD1 blocking assay, NFAT luciferase reporter (RLU) [5]: 12.1 nM

From patent US20250326848A1 (SHANGHAI HENLIUS BIOTECH, published 2025)
